# Measured values: the supplement of paper PMC3334620
# The full ranking holds about 33,000 sequences; the median of “E-score (-0.5 to 0.5)” is about -0.054, and the highest 2% start at about 0.39. Some of the results follow.
# Target: Ylr278c (UniProt Q05854)
# Experiment: PBM E-score (8-mer binding enrichment) (E-score (-0.5 to 0.5)); higher = stronger / more preferred TF binding; most listed sequences are background and not binding sites
# Conditions: protein concentration: 200 nM; construct: GST-DNA-binding domain
# Procedure: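 Universal 'all 10-mer' protein binding microarrays (Agilent AMADID 015681) probed with GST-tagged S. cerevisiae TFs (full-length or DBD) made by in vitro transcription/translation (PURExpress), about 100-200 nM. Bound TF was detected with fluorescent anti-GST. Each ungapped 8-mer (which stands for itself and its reverse complement) is scored by the PBM enrichment score (E-score), a modified Wilcoxon-Mann-Whitney statistic from -0.5 to +0.5, computed with the Universal PBM Analysis Suite. Scale: above 0.35 generally sequence-specific binding.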
row,Sequence,PBM E-score
1,GATATATA,0.153
2,CGCTATGC,0.137
3,TGCTCTAA,-0.211
4,AGGCGCAG,-0.25
5,ATGGCCGG,0.345
6,CCCGCTCA,0.131
7,AGAAGGAG,-0.18
8,GAGTGATA,-0.00358
9,AACGCCAA,-0.0358
10,GACTGGCA,-0.103
11,AGCAATCG,-0.0973
12,CAATTGGG,-0.147
13,AGGATTGA,-0.0189
14,CTGGGCGC,-0.168
15,ACCCAATC,0.00034
16,AGAACCAA,-0.0592
17,CTCTCTGA,-0.235
18,CTAACCGA,-0.0407
19,CATTGTTA,-0.179
20,CCTTCGCG,0.115
21,CGCATGGA,-0.184
22,CATTATGG,-0.00686
23,ATCTTGTC,0.0131
24,CATTCCAG,-0.295
25,GGAACCCA,0.0655

row,Sequence,PBM E-score
1,AGTGTGGC,0.0259
2,ATGTGGCC,-0.0779
3,CACGTACG,-0.152
4,AGACGGTC,-0.129
5,TGAGAGAA,-0.101
6,CCCTCTAA,-0.185
7,CAACTCGC,-0.0405
8,ATAGCGAA,-0.144
9,GTCACAGA,-0.154
10,CGTCCGTA,0.189
11,ACCTAGAT,-0.154
12,CTTGTCCA,-0.128
13,CAACAATC,-0.105
14,CTTATTTA,-0.201
15,TAGGCCGA,0.254
16,CAACATGC,-0.0851
17,CTGTTTTA,0.0217
18,CGAGTGGA,-0.00774
19,AAAAGGTC,-0.112
20,GCACCGGA,0.429
21,CCAATACC,0.192
22,ATCCAAAC,-0.0775
23,CGGCGCGC,0.3
24,AACCAGCC,0.0408
25,AGATTCAC,-0.154

row,Sequence,PBM E-score
1,CAAAAAAA,0.0916
2,CATCAGCG,0.0779
3,TATATGGA,-0.107
4,ACGTGTTC,-0.0185
5,TACGCTAA,-0.0975
6,AGTTCCAC,-0.0892
7,AACCCCTC,-0.154
8,CCGTAGAC,0.148
9,ACCTTCCT,-0.24
10,CAATAACG,0.0174
11,CCAAGTGG,-0.187
12,TATATTCA,0.0247
13,GTATTGCA,-0.0786
14,CCCGATAA,0.193
15,TCTGTGAA,-0.0514
16,CAGTTATA,0.0111
17,TAGTACCA,-0.0159
18,CGCTCGGA,0.408
19,CTAGTCGC,-0.175
20,CAGGAACA,-0.157
21,CTAGACAA,-0.027
22,AGGGGGGC,-0.224
23,GAAGCGGC,0.125
24,AACTAGCC,-0.218
25,GACGTGAA,-0.171

row,Sequence,PBM E-score
1,ACAGCAAG,-0.139
2,ACGGCCCC,-0.034
3,TCCGTCAA,0.352
4,ATAACTTG,-0.14
5,ATTTACAA,-0.16
6,AATTTCAG,-0.275
7,AATAACCG,0.178
8,CCTTGCCC,0.0607
9,AGCCAAGG,-0.211
10,AAAACTTA,-0.0467
11,TCACAGGA,-0.15
12,CCATCTTC,-0.00557
13,TACATATA,0.00744
14,AGACTAGA,-0.22
15,TGTTGTAA,-0.0583
16,GGTCCGAA,0.439
17,ACACCAAC,-0.126
18,GCGGAACC,0.254
19,ACGCTACA,-0.159
20,ATGATGCG,-0.0171
21,CCCGAGTC,0.218
22,CCGCGCCG,0.4
23,CAACGTGA,-0.172
24,CACACCAC,-0.00397
25,AATCCTTC,-0.0261

row,Sequence,PBM E-score
1,TACGTTCA,-0.23
2,GTTTGTTA,-0.00603
3,AAACTGCG,0.151
4,ATGCGCGG,0.296
5,ATTGATCG,0.0516
6,ATGGCAGA,-0.0323
7,CTAGTACC,-0.169
8,GTAGGATA,-0.156
9,ACGAGAAG,-0.124
10,AATCCACG,0.0023
11,ATGAAGTC,-0.138
12,TAAGCATA,-0.106
13,AATATAAC,-0.00861
14,AAATGGTT,-0.0331
15,CGCCCGAC,0.279
16,CAGTCCAA,-0.218
17,ACACGAGA,-0.162
18,ATGGGCCA,-0.098
19,AGACAGCA,-0.0712
20,CATACTCG,0.147
21,ACCGAAAG,0.0189
22,AAGTGTTA,-0.123
23,TACTACAA,-0.0307
24,AGCGGACA,0.294
25,ACATAAAC,-0.122

row,Sequence,PBM E-score
1,AATAAACC,0.0827
2,ATTAACGC,0.0233
3,TCGCCAGA,-0.26
4,CTACTCGA,-0.0146
5,TCACCGAA,0.178
6,AATTAGCA,0.01
7,ACGTGATA,-0.178
8,AAAAAAGA,-0.0771
9,AGTCGACG,0.0544
10,ATTAACTC,0.0677
11,GCCGTGAA,0.204
12,TGGCGCAA,-0.118
13,AGAGCACC,-0.204
14,GGTGTCTA,-0.175
15,AGGGTAGC,-0.222
16,GGGTGAAA,0.0762
17,AGATTAAG,-0.104
18,CATGCGTC,-0.0854
19,ATATCTCG,0.0977
20,AGCCGAGC,0.24
21,GAGCGAAC,-0.014
22,CGGTATGA,0.0369
23,GAGCGTCA,-0.076
24,TCAATACA,-0.184
25,AATGAAAG,-0.17

row,Sequence,PBM E-score
1,AAGAGTCA,-0.259
2,AGCGAGTG,-0.0417
3,GTGTGCTA,-0.0372
4,ATAACACC,0.158
5,CGTACGGA,0.301
6,ACTATACC,0.0206
7,CCTAGAGG,-0.229
8,AAGTTACT,0.0192
9,GTTGACCA,-0.111
10,ATAAGCAG,-0.148
11,ACCCGGGC,0.273
12,GCACGTCC,0.00088
13,ATCCTCGC,0.0602
14,CGCGCGCA,0.264
15,TGTTCTAA,-0.0481
16,AACGGGAC,0.0356
17,CACCCCGA,0.29
18,AGTTGGCA,-0.172
19,ACTTCACT,-0.0406
20,ATTTAAAG,0.209
21,AATAAGGA,-0.127
22,GCAATGAA,-0.0632
